Drawing on article PMC3102746, this text covers binding for five molecules.

No constants are given. Whether binding was seen depends on the method and setting. In cells and extracts the contact can be indirect. Some entries that bind do so weakly or less than the wild type. Tags and fused reporters may be left off the sequences shown.

In experiment [1] the target is T1, myc-SYCE3 (mouse) (UniProt B5KM66).
T1 sequence: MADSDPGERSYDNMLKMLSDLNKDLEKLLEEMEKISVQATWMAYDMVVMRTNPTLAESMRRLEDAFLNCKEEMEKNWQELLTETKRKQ
Kind of experiment: co-IP; COS-7 cells co-transfected with myc-SYCE3 and an EGFP fusion construct; immunoprecipitated overnight with anti-myc antibody (bait: myc-SYCE3), protein G dynabeads, Western blot. Background: Immunoblotting shows a protein as a band on a membrane.

Experiment [2] concerns the target T2, EGFP-SYCE1 (UniProt Q9D495).
T2 sequence: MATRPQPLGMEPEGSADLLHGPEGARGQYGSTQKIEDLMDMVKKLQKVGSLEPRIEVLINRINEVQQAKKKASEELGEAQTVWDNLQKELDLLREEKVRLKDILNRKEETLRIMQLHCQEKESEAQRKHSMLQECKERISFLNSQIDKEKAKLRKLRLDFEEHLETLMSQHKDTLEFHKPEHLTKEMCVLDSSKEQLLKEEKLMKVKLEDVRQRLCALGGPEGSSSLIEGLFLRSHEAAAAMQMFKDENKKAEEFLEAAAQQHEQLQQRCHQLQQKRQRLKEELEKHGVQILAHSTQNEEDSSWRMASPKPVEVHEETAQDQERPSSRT
Kind of experiment: co-IP; reverse co-IP: COS-7 cells co-transfected with myc-SYCE3 and an EGFP fusion construct; immunoprecipitated overnight with anti-EGFP antibody (bait: EGFP fusion), protein G dynabeads, Western blot.

Experiment [3] deals with T3, EGFP-SYCE2 (UniProt Q505B8).
T3 sequence: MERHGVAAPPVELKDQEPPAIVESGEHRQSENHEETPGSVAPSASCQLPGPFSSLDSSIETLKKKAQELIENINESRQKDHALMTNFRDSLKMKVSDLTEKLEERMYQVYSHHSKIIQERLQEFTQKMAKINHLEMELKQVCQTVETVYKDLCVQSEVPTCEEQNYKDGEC
Described as above.

B1: EGFP-SYCP1 820–997 (domain or fragment, UniProt Q03410 820-997)
chain: SLLESPEATSWKFDSKTTPSQNISRLSSSMDSGKSKDNRDSLRASAKSILSTTVTKEYTVKTPTKKSIYQRENKYLPTGGSNKKRKTVFEFDVNSDSSETTDLLSLVSEEDISNRIYNNNTPDSHLLVKTPKQTPLSLSTPASFTKFGSLKKMREDRWATIAKIDRKRRLKEAEKLFT
Take B1: the binding result in experiment [1] is listed as “no binding”.

B2: Tex12-EGFP (protein, UniProt Q9CR81 1-123)
chain: MMANHLVKPDSRNCKRARELEPQVSDSPQVSSLGKSESSLSEASGLFYKEEALEKDLSDMSKEINLMLSTYAKILSERAAVDASYIDEIDGLFKEANIIENFLVQKREFLKQRFTVITNTLHK
With B2, the binding result in experiment [1] was “no binding”.

B3: myc-SYCE3 (protein, UniProt B5KM66 1-88)
chain: T1 sequence
As to B3, the binding entry in experiment [2] and in experiment [3] was “binds” each time.

B4: EGFP-SYCE2 (protein, UniProt Q505B8 1-171)
chain: T3 sequence
For B4, in experiment [1], the binding entry is on record as “binds”.

B5: EGFP-SYCE1 (protein, UniProt Q9D495 1-329)
chain: T2 sequence
In the case of B5, the binding entry in experiment [1] is recorded as “binds”.
